Each structure is given as a SMILES string. Among all 52,000 compounds or so, about 1,700 (3.3%) were called active. Rule as the data show it: active = survival mostly below about 52% (no sharp cut-off); inactive = mostly above about 56%. This is one part of the list.

This experiment deals with Wild type. Kind of experiment: growth inhibition of S. aureus wild type versus tarO mutant, primary screen, teichoic acid synthesis inhibitors, RN4220, OD600 (AID 463173). The note with it: S. aureus RN4220 wild type/DeltatarO growth, OD600, 18 h, stronger effect = lower value, screened at 18.75 µg/mL (by protocol).
As for `COCCn1c(SCC(=O)c2ccc(F)cc2)nc2cc(C(=O)NC3CCCC3)ccc2c1=O`, the survival is inactive: 73%.
`O=C1CC(c2ccc(F)cc2F)c2cc3c(cc2N1)OCO3` (stereo unspecified): the survival is inactive: 134%.
As to `COc1ccc(Cl)cc1NC(=O)C1CCN(S(=O)(=O)c2ccc(F)cc2)CC1`, the survival was inactive: 81%.
`COc1ccc(OC)c(NC(=O)Cn2c(=O)n(-c3ccc(Cl)cc3)c(=O)c3c(C)c(C)sc32)c1`: the survival is inactive: 72%.
For the compound `Cc1ccc(N2C(=O)CCSC23C(=O)N(Cc2ccc(F)cc2)c2ccccc23)cc1` (stereo unspecified), the survival was inactive: 72%.
For `CCOc1cccc(C(=O)N(Cc2ccc(F)cc2)Cc2ccco2)c1`, the survival is inactive: 87%.
Consider `CC1CCN(C(=O)CSc2nnc(NC(=O)Nc3ccccc3)s2)CC1`, for which the survival is inactive: 89%.
Turning to `Cc1cccc(CC(=O)Nc2c(C(=O)Nc3cccc(F)c3)oc3ccccc23)c1`, the survival is inactive: 48%.
For `CCOC(=O)C1CCN(C(=O)Cn2ncc3c4ccccc4n(Cc4ccccc4)c3c2=O)CC1`, the survival was inactive: 82%.
Take `Cc1ccc2c(c1)N(C(=O)CCC(=O)NCc1cccs1)CC(C)O2` (stereo unspecified): the survival is inactive: 83%.
As for `N#CSc1ccc(NCCO)cc1C(F)(F)F`, the survival is inactive: 106%.
`COC(=O)c1ccccc1NC(=O)Cn1c(CCC(=O)O)ccc1-c1ccc(C)cc1`: the survival was inactive: 59%.
For `CS(=O)(=O)c1ncc(Cl)c(C(=O)Nc2c(C(=O)c3ccc(Cl)cc3)oc3ccccc23)n1`, the survival was inactive: 115%.
Take `COc1cccc(-c2nc3c(C#N)c[nH]n3c2NC2CCC(C)CC2)c1` (stereo unspecified): the survival is inactive: 40%.
In the case of `O=C(NCc1ccccc1)c1ncn[nH]1` it was inactive: 94%; in that of `COc1ccc(CCNC(=O)c2ccc(Cn3c(SCC(=O)NCCC(C)C)nc4cc5c(cc4c3=O)OCO5)cc2)cc1OC`, inactive: 129%.
Turning to `CC1=C(C(=O)Nc2cccnc2)C(c2ccccc2Cl)n2nc(-c3ccccc3)nc2N1` (stereo unspecified), the survival is inactive: 64%.
Regarding `Cc1cc(NC(=O)CSc2ncc(C(=O)Nc3ccc(C)c(C)c3)c(=O)n2C)no1`, the survival was inactive: 73%.
In the case of `Cc1ccc(NC(=O)CCSc2nc(-c3ccc4c(c3)OCO4)cc(C(F)(F)F)n2)c(C)c1` it was inactive: 72%; in that of `CCOc1ccccc1C(=O)NCc1ccc2c(c1)CCN2C(=O)c1ccccc1`, inactive: 81%; in that of `Cc1cccc(Nc2nc3c(S(=O)(=O)c4ccc(Br)cc4)nnn3c3ccsc23)c1C`, inactive: 62%.
As to `Cc1cc(C)c2oc(-c3cccc(NC(=O)COc4ccccc4Cl)c3C)nc2c1`, the survival is inactive: 58%.
Consider `Clc1cccc(-n2ncc3c(NCCCN4CCOCC4)ncnc32)c1`, for which the survival was inactive: 75%.
Regarding `O=C(Nc1ccc2oc(-c3ccc4ccccc4c3)nc2c1)c1cc(Cl)ccc1Cl`, the survival was inactive: 108%.
For the compound `CC(=O)c1c(C)n(-c2ccc(C)cc2)c2ccc(OC(=O)COc3ccccc3)cc12`, the survival was inactive: 67%.
Regarding `Cc1ccc2nc(CN3CCN(S(=O)(=O)c4ccc(C)c(C)c4)CC3)oc2c1`, the survival is inactive: 82%.
As for `CN(C)c1ccc(CNC(=O)C2CCN(S(=O)(=O)c3ccc4[nH]c(=O)ccc4c3)CC2)cc1`, the survival was inactive: 78%.
With `COc1cc(-c2ccno2)ccc1S(=O)(=O)N1CCN(c2ccccc2)CC1`, the survival is inactive: 71%.
As for `CC(C)C(=O)Nc1nnc(SCc2cc(=O)n3ccccc3n2)s1`, the survival is inactive: 117%.
As to `Cc1ccc(C2CC(=O)n3nc(-c4cccc(C)c4)nc3S2)cc1` (stereo unspecified), the survival was inactive: 90%.
Take `CC(C)C(=O)Nc1cccc(C(=O)Nc2nnc(C(F)(F)F)s2)c1`: the survival was inactive: 52%.
Regarding `Cc1ccc(NC(=O)CN(c2ccc(C)cc2)S(=O)(=O)c2cccc3nonc23)cc1`, the survival is inactive: 77%.
Consider `CCOc1ccccc1NC(=O)CCc1c(C)nc2cc(-c3ccccc3)nn2c1C`, for which the survival is inactive: 57%.
Take `Cc1cccc(NC(=O)c2c(NC(=O)c3ccco3)sc3c2CCC(C)C3)c1` (stereo unspecified): the survival was inactive: 73%.
In the case of `COc1ccccc1N(CC(N)=O)S(=O)(=O)c1ccccc1` it was inactive: 96%.
Turning to `O=c1[nH]cc(N=Cc2cccnc2)c(=O)[nH]1`, the survival was inactive: 112%.
Take `Cc1c2cnn(-c3ccccc3)c(=O)c2c(C)n1C(C)C(=O)NCc1cccc(Br)c1` (stereo unspecified): the survival was inactive: 71%.
`CCOCCCn1c(=N)c(C(=O)NCc2ccccc2)cc2c(=O)n3ccccc3nc21`: the survival was inactive: 68%.
For `COc1cccc(NC(=O)Cn2c(=O)n(CCc3cccc(C)c3)c(=O)c3ccccc32)c1`, the survival was inactive: 82%.
As for `CCCN(CCC)C(=O)c1nn(C)c2c1CSc1ccccc1-2`, the survival was inactive: 108%.
The result for `COc1cccc(CNC(=O)c2ccc3c(c2)nc2n3CCC(C)C2)c1` (stereo unspecified) reads inactive: 59%; that for `COc1ccc(-n2nc(-c3ccc(C)cc3)c3cnc4cc(F)c(F)cc4c32)cc1`, inactive: 85%.
With `Cc1ccc(NC(=O)Cn2nc(-c3ccccc3)nc(Cc3ccccc3)c2=O)cc1`, the survival is inactive: 68%.
Regarding `CCc1nc2nc(C)c(NS(=O)(=O)c3ccc(F)c(C)c3)c(=O)n2[nH]1`, the survival was inactive: 121%.
As to `Cc1ccccc1C(=O)Nc1ccccc1-c1nc(-c2ccccc2)no1`, the survival was inactive: 95%.
Regarding `Cc1nc(-c2cccc(F)c2)sc1CCNC(=O)C(=O)Nc1ccc2c(c1)OCCO2`, the survival was inactive: 68%.
As for `Cc1ccc(NC(=O)CSc2nc3ccccc3n2CC(=O)N(C)C2CCCCC2)cc1C`, the survival was inactive: 78%.
`CC(C(=O)Nc1ccccc1)n1nnc2sc3c(c2c1=O)CCCC3` (stereo unspecified): the survival was inactive: 85%.
Turning to `CCc1nc2ccc(NC(C)=O)cc2c(=O)n1Cc1ccccc1`, the survival was inactive: 94%.
The result for `CCOc1ccc2nc(N3CCCC(C(=O)NCCc4ccc(C)cc4)C3)sc2c1` (stereo unspecified) reads inactive: 76%; that for `Cc1cccc(Cn2c(=O)n(Cc3ccccc3)c(=O)c3sc4ccccc4c32)c1`, inactive: 83%; that for `CCCCn1c(CNC(=O)C23CC4CC(CC(C4)C2)C3)nnc1SCC(=O)Nc1ccc(F)cc1`, inactive: 68%.
For the compound `Cc1cccc(NC(=O)Nc2nnc(N3CCCC3)s2)c1`, the survival was inactive: 98%.
`Cc1ccc(NC(=O)C2CCCN2S(=O)(=O)c2ccc3nc(-c4ccccc4)[nH]c3c2)cc1C` (stereo unspecified): the survival was inactive: 96%.
In the case of `Cc1cc(C(=O)NCc2ccccc2)c2c(C)nn(-c3cccc(Cl)c3C)c2n1` it was inactive: 159%; in that of `O=C(NCCS(=O)(=O)N1CCN(c2ccccc2F)CC1)C1CC(=O)N(c2ccc(F)cc2)C1` (stereo unspecified), inactive: 138%.

(Values after PubChem BioAssay AID463173 (ICCB-Longwood Screening Facility, Harvard Medical School, 2010).)
